Values marked as one replicate rest on one cluster of the flow cell; about a third of the high ones do not repeat.

The test system of the series is ATP. The series is described as follows: switch fluorescence ratio, 500 uM ATP over buffer (Cy3 cluster intensity, sum of 5 cycles each) (fold (ratio)); higher = stronger signal-on switching upon ATP binding; sequences stand for … in TCGTCGGCAGCGTCAGATGTGTATAAGAGACAGTTTTTTTTTTTTTTTTTTTTTTTTT…TC. The settings on record: aptamer strand: ATP DNA aptamer (quencher-CACCTGGGGGAGTATTGCGGAGGAAGG + anchor), 100 nM annealed; ATP concentration: 500 uM; one replicate. In a few lines:
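Cy3-labelled switching-strand clusters on a modified Illumina MiSeq flow-cell were annealed to 100 nM quencher-labelled ATP aptamer and imaged first in selection buffer, then after 15 min with 500 uM ATP at 22 °C. NaOH stripping and re-annealing separated each of five buffer/ATP cycles, and clusters outside 100-1000 RFU were excluded. The fluorescence ratio sums target-cycle Cy3 intensity over buffer-cycle Cy3 intensity per cluster and averages it per switch-domain sequence.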
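Note: ATP exposure 15 min at 22 °C before imaging.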

For GGGTCTTGC, the switch fluorescence ratio was 1.01.
On to CGATCTACTT, for which the switch fluorescence ratio came out at 1.03.
The value for TATTTGGCGG was 0.966; that for GTGGTTAGGA was 1.03; that for GCATTGCGG was 0.992.
In the case of TAGTAGGATA, the switch fluorescence ratio came to 0.991.
Turning to TGTATGATTG, the switch fluorescence ratio was 0.957.
With ATGCGGCTAA, the switch fluorescence ratio came out at 0.968.
TCTCATATTT: the switch fluorescence ratio came out at 0.988.
The value for GGATGCTCAC was 1.03.
The value for TGCGACTTT was 1.01; that for GTGTAAATTG was 0.956; that for TTGATTATCT was 1.03.
The value for TATAGGGCGT was 1.03; that for AAACGACTAT was 1.01.
With TCCCTCGATT, the switch fluorescence ratio is 0.997.
The value for TAAAGATTAG was 1.01.
The value for TTCGTACTCT was 1.02.
The value for GCGGGAGTAA was 1.08; that for TGTGATTTT was 0.964; that for AGGACAGCTC was 1.03.
Take TGGTAGCGTG: the switch fluorescence ratio was determined as 0.984.
Take GGAATAGCTA: the switch fluorescence ratio stood at 1.02.
The value for AGTGTATTAC was 0.996.
The value for TATTAAAGGC was 1.07; that for TGAACTTCCT was 1.14; that for CTATATGAGG was 0.983.
In the case of GGTCTCCACT, the switch fluorescence ratio was 0.964.
The value for TACAACTAGT was 1.02; that for AGTCTCAAGA was 1.01; that for ATTGGAAGGG was 1.01.
Take CATTAAAAGT: the switch fluorescence ratio worked out at 0.971.
For TTCCGACATG, the switch fluorescence ratio came out at 1.06.
On to TTAGTCGGGT, for which the switch fluorescence ratio is 1.01.
On to AGAACCGCTG, for which the switch fluorescence ratio is 1.11.
The value for ACGGGAAGAA was 1.03; that for CGGGGCTTG was 1.02.
The value for TTAGAAGTC was 0.981; that for GTCAACGTCC was 1.05; that for CTCCATCTGG was 1.17.
The value for CGGCAGTATT was 1.05.
Take CACACACGGG: the switch fluorescence ratio was determined as 1.83.
The value for CCAAGTAGGT was 0.956; that for TCACAAAGAC was 1.08; that for TAAGTTCGCT was 0.993.
The value for GACCCGTTTG was 0.99; that for TTCATGACTC was 1.06.
Consider ACACGTCTT, for which the switch fluorescence ratio stood at 0.983.
The value for GACGATTCCT was 1.02.
The value for TGTCGCCCCG was 1.05.
The value for TCCCCTCTTC was 0.956; that for GCTCCGCCTT was 3.92; that for CCTTGAACT was 0.99.
Turning to TCATGTATGT, the switch fluorescence ratio stood at 1.04.
As to CCGGGCACTG, the switch fluorescence ratio came to 1.17.
For TTAGTGGCTC, the switch fluorescence ratio is 1.
For TTGCCATCGT, the switch fluorescence ratio was 0.968.
The value for ACTATGTTTT was 1.04; that for GGGGACAAGC was 1.09.
With GACGAAGGGA, the switch fluorescence ratio came out at 1.1.
The value for AAGATGGGCG was 1.03.
The value for CTGCTAGGGC was 1.15.
The value for AACGTCAACT was 1.3.
On to TGTCAGATCT, for which the switch fluorescence ratio was 0.962.
As to GGTGTTAG, the switch fluorescence ratio was found to be 0.958.
In the case of AATATGGGGA, the switch fluorescence ratio worked out at 0.957.
Take CGCGGTCGGA: the switch fluorescence ratio is 0.977.
As for TTCCTGCTTC, the switch fluorescence ratio stood at 1.84.
On to CTTCGAGGCT, for which the switch fluorescence ratio was 1.15.
For the sequence TAATTTGGGG, the switch fluorescence ratio turned out to be 0.963.
The value for ATAGGATCGA was 1.17; that for GCCGGATTCT was 1.03.
The value for ATATGCGCGT was 0.994; that for AGTTAGCTGG was 1.02; that for ACACGCACGA was 1.62.
The value for CTACGCGGGC was 2.6; that for GATTGGGGCC was 0.978; that for ATTGACTTGA was 0.985.
Consider GGGCTCCGGC, for which the switch fluorescence ratio was 1.07.
The value for TTACAGGGAT was 0.978.
The value for GTGACCAAAG was 1.02; that for CCTGAACAGG was 1.03.
For the sequence ACTTGGTTAT, the switch fluorescence ratio turned out to be 1.02.
For the sequence TCTTGCGTAT, the switch fluorescence ratio was determined as 1.04.
As to CTCGGGTTG, the switch fluorescence ratio was 0.971.
CGAGATCTAT: the switch fluorescence ratio worked out at 0.979.
The value for CGGTACCTAG was 1.05.
In the case of ACAGGGGGTT, the switch fluorescence ratio stood at 0.977.
The value for GCAAATTACT was 1.59; that for GGCATTCACT was 1.
The value for GTTGCGAGG was 0.999; that for GTGTATAATC was 0.985.
For the sequence GACCTGTGCA, the switch fluorescence ratio is 1.03.
The value for ATAATGGTAT was 0.999.
The value for TTTGACTGCA was 1.02; that for AAGACGGTG was 1.07; that for CTGGGCATTG was 0.995.
The value for TTTGATAGGG was 0.942.
As for CGGACTGCGT, the switch fluorescence ratio stood at 1.04.
The value for ATACCCGGCA was 1.04; that for TCGATATTGT was 0.965; that for TGCGGGAGGC was 1.02.
The value for AAATCAATAG was 1.08; that for GGTGGTGCCG was 0.919.
The value for ACATTGCTGA was 1.05; that for GCACCAAACG was 1.31.
With AACTACTGAT, the switch fluorescence ratio worked out at 1.03.
The value for TTTCATCTAA was 0.995; that for CTTTGCTACG was 1.01.
For TAGGTCTCTC, the switch fluorescence ratio was 0.987.
The value for GACGGTTCTC was 1; that for GACTTGCACT was 1.13.
As for GATGTACGAT, the switch fluorescence ratio came to 1.05.
The value for TGGTGGATAG was 1.05; that for GAAACTCGCC was 1.1.
The value for GGCTTGAGAG was 0.981; that for TGATAATAAG was 1.02.
ACTCTTCTTT: the switch fluorescence ratio was 1.01.
The value for CACATATGA was 1.07; that for ATGATTTGCT was 0.98.

The values are drawn from the supplement of paper PMC10126150.
